Legend:
Experiment in all cases: SPR (Biacore 4000) binding kinetics at 25° C.
human BCMA-MMH = biological target: T1, human BCMA-MMH (Homo sapiens, UniProt Q02223)
T1 construct: extracellular domain of human BCMA expressed with C-terminal myc-myc-hexahistidine tag (human BCMA-MMH)
Procedure: (§1) The CM5 Biacore sensor surface was derivatized by amine coupling with a monoclonal mouse anti-human Fc antibody (GE, #BR-1008-39) to capture purified anti-BCMA mAbs and anti-BCMA×anti-CD3 bispecific mAbs. All Biacore binding studies were performed in a buffer composed of 0.01M HEPES pH 7.4, 0.15M NaCl, 3 mM EDTA, 0.05% v/v Surfactant P20 (HBS-ET running buffer). […] Antigen samples were then injected over the anti-BCMA and anti-BCMA×anti-CD3 bispecific mAbs captured surfaces at a flow rate of 30 μL/minute. Antibody-reagent association was monitored for 5 minutes while dissociation in HBS-ET running buffer was monitored for 10 minutes. All of the binding kinetics experiments were performed at 25° C. Kinetic association (ka) and dissociation (kd) rate constants were determined by fitting the real-time sensorgrams to a 1:1 binding model using Scrubber 2.0c curve fitting software. Binding dissociation equilibrium constants (KD) and dissociative half-lives (t1/2) were calculated from the kinetic rate constants as: […]

monkey BCMA-MFC = conditions: antibody captured on anti-human Fc
Procedure: as §1

human BCMA-MFC = biological target: T2, human BCMA-MFC (Homo sapiens, UniProt Q02223)
T2 construct: extracellular domain of human BCMA expressed with C-terminal mFc tag (human BCMA-MFC)
T2 sequence (Q02223 with tags, fused parts or gaps): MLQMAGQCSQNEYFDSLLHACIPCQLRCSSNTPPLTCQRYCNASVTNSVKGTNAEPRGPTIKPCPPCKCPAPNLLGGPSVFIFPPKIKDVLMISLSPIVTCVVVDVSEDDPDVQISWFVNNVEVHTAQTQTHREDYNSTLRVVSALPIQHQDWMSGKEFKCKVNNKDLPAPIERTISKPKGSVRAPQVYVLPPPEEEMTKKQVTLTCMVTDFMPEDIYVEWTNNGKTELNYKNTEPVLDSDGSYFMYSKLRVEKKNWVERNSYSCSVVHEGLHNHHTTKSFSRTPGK
Procedure: as §1

mouse BCMA-MFC = biological target: T3, mouse BCMA-MFC (Mus musculus, UniProt O88472)
T3 construct: 30 nM BCMA expressed with C-terminal mFc tag (mouse BCMA-MFC)
T3 sequence (O88472 with tags, fused parts or gaps): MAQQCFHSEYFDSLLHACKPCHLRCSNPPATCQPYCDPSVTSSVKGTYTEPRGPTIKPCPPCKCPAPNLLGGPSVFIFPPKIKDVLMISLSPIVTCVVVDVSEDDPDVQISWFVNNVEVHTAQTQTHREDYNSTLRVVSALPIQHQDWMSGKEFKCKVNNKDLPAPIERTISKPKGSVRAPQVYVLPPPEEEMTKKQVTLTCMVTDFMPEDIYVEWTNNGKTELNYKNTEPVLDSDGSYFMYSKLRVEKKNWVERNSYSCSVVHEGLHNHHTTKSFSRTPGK
Procedure: as §1

monkey BCMA-MMH = biological target: monkey BCMA-MMH
Procedure: as §1

T1 sequence (Q02223 with tags, fused parts or gaps): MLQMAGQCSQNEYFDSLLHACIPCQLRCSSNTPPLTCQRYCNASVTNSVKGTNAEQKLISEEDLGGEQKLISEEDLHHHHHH

B1: mAb16716: anti-BCMA antibody, HCVR/LCVR SEQ ID NOs 18/26 (antibody, V domains shown)
VH: [letters of about 100 residues not shown]RAGDNWNWFDPWGQGTLVTVSS
VL: DIQMTQSPSSVSASLGDRVTITCRASQGISSWLAWYQRKPGKAPKLLIYAASSLQSGVPSRFSGSGSGADFTLTISSLQPEDFATYYCQQAKSVPFTFGPGTKVDIK
ka (human BCMA-MMH): 841000 M⁻¹ s⁻¹ | kd (human BCMA-MMH): 0.00299 s⁻¹ | 30 nM mfBCMA.mFc Bind (RU) (monkey BCMA-MFC): 3.2 RU | ka (human BCMA-MFC): 862000 M⁻¹ s⁻¹ | kd (human BCMA-MFC): 8.35e-05 s⁻¹ | ka (mouse BCMA-MFC): 205000 M⁻¹ s⁻¹ | kd (mouse BCMA-MFC): 0.00385 s⁻¹ | Kd (monkey BCMA-MMH): > 90 nM

Reference: US11919965B2, “Methods of treating multiple myeloma with bispecific anti-BCMA x anti-CD3 antibodies” (Regeneron Pharmaceuticals, Inc., priority 2019, dated 2024)
